Source: the supplement of paper PMC7826260
Some of the results follow. One pool of 16,384 single-stranded DNAs met each Rep nickase domain in vitro at 3 µM enzyme and 37 °C for 1 h; the strands have 90 letters, of which the middle is given. A value is the log2 ratio of uncut reads to the pool without enzyme; the lower, the more was cut; hits are not called. Shares of all reads are compared; values above 0 arise when much of the pool is cut.

The sequences below were run on T1, Rep nickase domain of tomato golden mosaic virus (assay: uncleaved DNA left, log2 of reads against the no-enzyme library (log2 ratio); higher = less cleavage (more negative = more Rep cleavage of the k-mer); sequences stand for … in CTCGTCCG…ACCGGAGA).
T1 sequence (residues 1-124, tag not shown): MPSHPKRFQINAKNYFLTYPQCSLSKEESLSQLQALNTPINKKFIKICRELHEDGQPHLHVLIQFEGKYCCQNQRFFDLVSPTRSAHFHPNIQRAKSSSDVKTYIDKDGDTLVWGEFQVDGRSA
Protocol: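 A pool of 90-nt single-stranded DNAs with seven random bases just before the constant AC of the nick site (name = the seven bases) was cut by 3 µM recombinant His6-SUMO-tagged Rep nickase domain (300 nM DNA, 50 mM HEPES pH 8.0, 50 mM NaCl, 1 mM MnCl2, 1 h, 37 °C, three replicates). Uncut DNA was amplified and sequenced.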
In the case of TTCGCTT, the “uncleaved DNA left (log2)” value is reported as -0.139.
For AATTGTA, the “uncleaved DNA left (log2)” value was -0.0374.
With GGGCTAC the “uncleaved DNA left (log2)” value was 0.143.
For TAATTCA, the “uncleaved DNA left (log2)” value was -3.36.
For GCTACCC, the “uncleaved DNA left (log2)” value was 0.026.
With TGCTCTT the “uncleaved DNA left (log2)” value was -0.174.
With GACGCTA the “uncleaved DNA left (log2)” value was -0.045.
With TTTCTCG the “uncleaved DNA left (log2)” value was -0.106.
CTCACGT was tested, and the “uncleaved DNA left (log2)” value was -0.144.
In the case of CAGAGTG, the “uncleaved DNA left (log2)” value is reported as 0.00191.
With AGTATCC the “uncleaved DNA left (log2)” value was -0.00879.
CGTAATT was tested, and the “uncleaved DNA left (log2)” value was -0.094.
With ACGCAAC the “uncleaved DNA left (log2)” value was -0.0528.
With CACGTCA the “uncleaved DNA left (log2)” value was -0.059.
CTCACGC was tested, and the “uncleaved DNA left (log2)” value was -0.0438.
In the case of CGCTCTG, the “uncleaved DNA left (log2)” value is reported as 0.0289.
With TTCGATA the “uncleaved DNA left (log2)” value was 0.039.
TGGGACA was tested, and the “uncleaved DNA left (log2)” value was 0.189.
ACATCCA was tested, and the “uncleaved DNA left (log2)” value was 0.0526.
With GGTATCA the “uncleaved DNA left (log2)” value was 0.0428.
With GTACACA the “uncleaved DNA left (log2)” value was 0.056.
With CGCGAAG the “uncleaved DNA left (log2)” value was 0.0406.
For CCCGCAT, the “uncleaved DNA left (log2)” value was -0.147.
For ACATAAT, the “uncleaved DNA left (log2)” value was 0.00411.
ATGCTTA was tested, and the “uncleaved DNA left (log2)” value was -0.101.
For GTTCATG, the “uncleaved DNA left (log2)” value was -0.0265.
With TCTTGAA the “uncleaved DNA left (log2)” value was 0.091.
In the case of AGCGAAG, the “uncleaved DNA left (log2)” value is reported as 0.0832.
In the case of CTCCCTC, the “uncleaved DNA left (log2)” value is reported as -0.167.
With GTCTCGT the “uncleaved DNA left (log2)” value was 0.0802.
CAGAAGC was tested, and the “uncleaved DNA left (log2)” value was 0.0302.
For CAGATGT, the “uncleaved DNA left (log2)” value was -0.00621.
For TTTTCGC, the “uncleaved DNA left (log2)” value was -0.205.
In the case of GCTCGGG, the “uncleaved DNA left (log2)” value is reported as 0.0593.
With CCATTTA the “uncleaved DNA left (log2)” value was -0.0372.
CCCCGGA was tested, and the “uncleaved DNA left (log2)” value was 0.0943.
CAAAGAA was tested, and the “uncleaved DNA left (log2)” value was 0.0558.
With CTCACCA the “uncleaved DNA left (log2)” value was -0.112.
GATCCAC was tested, and the “uncleaved DNA left (log2)” value was 0.0659.
With GGTTGAT the “uncleaved DNA left (log2)” value was -0.0224.
